# Laboratory results as given in the supplement of paper PMC10681739.
# The full ranking holds about 2,700 sequences; the median of “arbitrary fluorescence units” is about 4,100, and the highest 2% start at about 54,000. Some of the results follow.
# Biological target: T1, ETS1 (UniProt P14921)
# T1 sequence: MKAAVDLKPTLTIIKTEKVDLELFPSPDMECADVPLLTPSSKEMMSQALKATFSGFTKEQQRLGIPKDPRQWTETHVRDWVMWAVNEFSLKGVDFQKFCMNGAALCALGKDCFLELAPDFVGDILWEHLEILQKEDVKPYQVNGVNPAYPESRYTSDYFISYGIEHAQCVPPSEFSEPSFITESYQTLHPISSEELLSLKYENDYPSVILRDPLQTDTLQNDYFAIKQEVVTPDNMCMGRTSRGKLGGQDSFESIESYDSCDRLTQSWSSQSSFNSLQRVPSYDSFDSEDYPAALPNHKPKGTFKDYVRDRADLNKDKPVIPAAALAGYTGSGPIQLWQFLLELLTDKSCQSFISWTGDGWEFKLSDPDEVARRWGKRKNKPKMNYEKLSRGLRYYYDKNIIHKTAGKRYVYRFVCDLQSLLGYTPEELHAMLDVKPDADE
# Experiment: ETS1 binding intensity (PBM fluorescence) (arbitrary fluorescence units); higher = stronger binding
# Conditions: ETS1 concentration 10 nM
# Procedure: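 gcPBM on wild-type 36-bp genomic probes with two neighbouring ETS1 sites (4-24 bp apart). Recombinant human ETS1 (10 nM) was detected with anti-ETS1 antibody fluorescence. Values are medians over 3 replicate spots. The probes sit in constant array flanks that are not printed.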
row,Sequence,ETS1 binding intensity
1,CCGAAGCGCTTCCTGTGCCAGGTTTCCGGCTCCGGG,20100
2,GCCTATTGAAGGAAGCTCAGATTTCCTGGCCTGGCA,870
3,AGGGCTGTGGGCGGAAGTGGGGAAGTTTGTGGCGTG,8600
4,CATCACCCCATCCTGAGCCCAGCCGGATGTGGCTAA,2780
5,ACACTCCCCTGCTTCCTTTACTTCCTGGAGCCCCAG,4950
6,CCCGGAGTTCCGCGCGGCGCCAGCCCTTCCGCCACG,375
7,GCGCCTGATTCACTTCCCTCTTCCGCTCTGAGGCGT,4680
8,AGCGGGCCGCTGCTTCCTCAGGAAGGGTGGAGGCGG,244
9,CAGGCGGATGCTCTGATTCACCAAAAGCTTCCTGAA,553
10,AAAGCCGGAAGTGCGTCACACCCGCCTTCCGGAGCT,24900
11,CGGCTCATTTCCGCCCGACCCAGCGGAAAGCTAGGG,22400
12,GAAAGCGGAGAACGGAAGTCGGATGTTGGACCGCTG,9280
13,TATCTCCTTCCTGTGTAGCATTGACTTTCCTGTCAG,14100
14,ATTCTGGCAGGAAGTAACTTGGCAGGAAGTAACTTG,10600
15,CGAACCGGAACCGCCTTCACAGCACCGGAAGAGTCG,3640
16,TCGGCCGGAAGTGTCTCCGGCCTTTTCGGAAGTCAC,18000
17,ACTACAGGAAGAGAGAGAAGCATCTGCTTCCTCGAG,888
18,AACAGCCAGTTCCGGCGGCCGCACTTCCGATTGGCA,11800
19,AGTACTTCCCCCTTCACTCTCTCTCTCTTTCCTGCT,4220
20,TCACACAGGAAGACGGTCATGCTACAGGAAGACCTC,1630
21,CCCTCGGTTCGGAAACGGCGAAAGGAAACCGCAAGG,203

row,Sequence,ETS1 binding intensity
1,AGCACCCAGGAAGTGGTGAATACACTTCCTGCTTCT,9490
2,CCCCTGTCACACATCCTGTGGGAAGTCGGAGGCCTC,10200
3,GATGGCTTCCTGCGCGACAGCAAGCACATCCTGGGG,11200
4,AAAGGAGGATGTGAACAAAGGTCGAGGGAAATGACA,406
5,TGGGGTGCGGTTTCCTCAGGGGGAAGTTGAGGTCAC,669
6,AGAAGCTTACAGGAAGCAAACAGGAAAACGTGTGTC,2720
7,CAGATGTTTCCTGCTCACCTCCCGCATCCTGGTGAC,11700
8,TTAGCCGGATGTGCTTGCTTGAACCCGGAAGACGGA,11700
9,GAAGGGCTGTTTCCCGGCTGGCAGGATGTTTGTGCA,1590
10,GCCACAGTACTTCCTGTTAGAACATCCTGTCTCCTG,44800
11,GACTCGGTTCCGCGGAAATCGGAAATCGAAACTTAC,721
12,AGGGCTCCATCCGCAACGTAAGCAGGAAAAGATTCC,1240
13,AGAGCCTGGGATGTGAAGATAAGCTTCCGTTTCTCA,411
14,CTAACCCAACTACTTCCTTCTTCCTGTGCGGCTCAA,6140
15,TGAATTATCTGCCGGAAGAGGGAAATGTCAACAGAA,2000
16,AGCAGGAAGCTGGCAGCCATGAATTCTGGGAAATGT,381
17,TTAGAACGGAAATCACTAAAAAGTCAGGAAACAACA,7350
18,CGACGGGAAACGTCTCTGAATTAGGTGTTCCGCTCG,294
19,AGAGGAGGAAGCTGGGGTTGGAGACAGGAAGTGACT,3670
20,ACACAGGAAATAAAGATTAAACAAAGAGGAAGTGAA,5770
21,GCTGGACAGGATATACGGAGTAAAAGGAAGTGCTGT,5810

row,Sequence,ETS1 binding intensity
1,TTTGCAGGAAGCAGATTATGAGGTAGCTTCCTATGG,962
2,GGCCGGGATGTGGCCGAGCTCTTCTACCGGAAGCTG,1610
3,ATTTTATTACTTCCTCTCTTGACTTCCCAAAGAATT,8140
4,GGGTAAGGAAGTTGAGTTGGCCAACAGGAAGCAGGT,1630
5,AGTTTCGCTACATTTCCCAGGATGCTTTGCCAATAG,192
6,CTGGTTTAAAGGAAGTTGCTCTGTTCCGTTTTATTT,1260
7,TCATGTTTCATCCTGTTGTTTTGCTTCCTTTAAAAG,2640
8,CACAGCGCTTCCGGGCGCCCAGGTTTCCGAGCCAGC,23000
9,CGGGGGCCGTTTCCTGGGCTCCTTCCTGCAGGGCCT,7210
10,CCTGACACTCAGGAAGGCTGCAGGAAGTGCCTGAGG,912
11,GAGCCCGGCGGATGCTGACGTCATTTCCGCCACGAG,5390
12,CGTTCCCGTTTCCGCCAGCCACCGGAACTGCGGCCC,17500
13,CAGCAGGAAGCGGTGTACAGGCTTTGCCGGAAGAGA,2380
14,AGCTTTCCTGTCGTCATTGTACCGCCATTTCCTGAG,7750
15,GGCGCGCGTGGCAGGAAGCGGAAGCGATCCGAGGCC,5510
16,CTTGCGCTCCACTTCCTTCACATCCTCCTCCGCCTC,3970
17,AACGCCACTGGCTTCCCGGCCTTCCGTCCGCTGCCT,421
18,CCGAAGATCGCACTTCCGCTTCCGGGGCATAGCACC,24800
19,GTCACACAGGAAGTGGCAATGGCAGGATGTACCCTT,14800
20,GGAACAGCAGGATGTGAGTAACAGGAAGTGACAGAA,8830
21,GCGTGGCATCTTCCGCACCCACTTCCTGCTCTTTCT,9080
